From the RNAGym collection of RNA variant scans (doi:10.7554/elife.90254)
The source gives no read counts; variants with many changes may rest on few reads.

B1: LINE1-mini (parent)
chain: GGCAGAGCUCAACACAGCGUGGCAAAGUGGCUGUGGCUAGACUGCC

Variants of: B1
Assay: self-cleavage, relative activity (ratio to wild type); higher = more cleavage; in vitro, sequencing; the parent is a self-cleaving ribozyme
Variant UGCAGAGCUCAACACAGCCUGGCAAACUGGCUGUGGCUAGACUGCC [G1U G19C G27C] has a self-cleavage of 0.06.
In the case of UGCAGAGCUCAACACAGCCUGGCAAAGUGGCUGUGGCUACACUGCC [G1U G19C G40C], the self-cleavage is reported as 0.02.
UGCAGAGCUCAACACAGCCGAGCAAAGUUGCUGUGCCUAGAAUGCA [G1U G19C U20G G21A G29U G36C C42A C46A] showed a self-cleavage of 0.01.
UGCAGAGCUCAACACAGCCUGGCAAAGUGGCAGUGGCUAAACUCCC [G1U G19C U32A G40A G44C] gave a self-cleavage of 0.
UGCAGAGCUCAACACAGCUUGGCAGAGUGGCUGUGGCUAGACUUCC [G1U G19U A25G G44U] showed a self-cleavage of 0.4.
Work on UGCAGAGCUCAACACAGCUUGGCAAAGUGGCUGUGGCUAGACUGCU [G1U G19U C46U] yielded a self-cleavage of 0.44.
Variant UGCAGAGCUCAACACAGCUUGGCAAAGUUGCUGUGGCUAGACAGCC [G1U G19U G29U U43A] has a self-cleavage of 0.02.
Work on UGCAGAGCUCAACACAGCUUGGCAAAGUGGCUAUGGCUAGACUGCC [G1U G19U G33A] yielded a self-cleavage of 0.07.
UGCAGAGCUCAACACAGCUUGGCAAAGUGGCUGUAGCUAGACUGCC [G1U G19U G35A] showed a self-cleavage of 0.19.
UGCAGAGCUCAACACAGCUUGGCAAAGUGGCUGUGGCGAGACUGCC [G1U G19U U38G] showed a self-cleavage of 0.03.
UGCAGAGCUCAACACAGCUUGGCAAAGUGGCUGUGGCUAGACCGCC [G1U G19U U43C] showed a self-cleavage of 0.03.
UGCAGAGCUCAACACAGCGUAGCUAAGUGGCUGUUGCUAGACUGCC [G1U G21A A24U G35U] showed a self-cleavage of 0.05.
UGCAGAGCUCAACACAGCGUAGCAGAGUGACAGUGGCUAGACUGCC [G1U G21A A25G G30A U32A] showed a self-cleavage of 0.13.
With UGCAGAGCUCAACACAGCGUAGCAUAGUGGCUGUAGGUAGACUGCC [G1U G21A A25U G35A C37G] the self-cleavage was 0.45.
With UGCAGAGCUCAACACAGCGUAGAAAAGUGGCUGUGGCUGGACUGCC [G1U G21A C23A A39G] the self-cleavage was 0.03.
For UGCAGAGCUCAACACAGCGUAGCAAAGUGGCUGUGGCUAGAGUGCC [G1U G21A C42G], the self-cleavage was 0.02.
UGCAGAGCUCAACACAGCGUCGCAAUGUGACUGUGGCUAGGCUGCC [G1U G21C A26U G30A A41G] showed a self-cleavage of 0.2.
UGCAGAGCUCAACACAGCGUCGCAAUGUGGCUCUGGCUAGACUGCC [G1U G21C A26U G33C] showed a self-cleavage of 0.01.
In the case of UGCAGAGCUCAACACAGCGUCGAAAAGUUGCUGUGGCUAGACUGCC [G1U G21C C23A G29U], the self-cleavage is reported as 0.27.
In the case of UGCAGAGCUCAACACAGCGUCGCAAAGUGGAUGUGGCUAGAAUGUC [G1U G21C C31A C42A C45U], the self-cleavage is reported as 0.01.
In the case of UGCAGAGCUCAACACAGCGUCACAAAGUGGCUGUGGCUAGUCUGCC [G1U G21C G22A A41U], the self-cleavage is reported as 0.19.
In the case of UGCAGAGCUCAACACAGCGUCGCAAACUGGCUGUGGCUAGACUGCC [G1U G21C G27C], the self-cleavage is reported as 0.18.
With UGCAGAGCUCAACACAGCGUUGCGAAGUGGCUGUGGCUAGUCUGCC [G1U G21U A24G A41U] the self-cleavage was 0.08.
Variant UGCAGAGCUCAACACAGCGUUGAAAAGUGGCUGUGGCUCGACUGCC [G1U G21U C23A A39C] has a self-cleavage of 0.04.
Variant UGCAGAGCUCAACACAGCGUUGCAAAGUGGAUGUGGCUAGACUGCC [G1U G21U C31A] has a self-cleavage of 0.06.
For UGCAGAGCUCAACACAGCGUUGCAAAGUGGCUGUAGCUAGAUUGCC [G1U G21U G35A C42U], the self-cleavage was 0.02.
In the case of UGCAGAGCUCAACACAGCGUGAUAAAGUGGCUGUGGCUAGACUGCC [G1U G22A C23U], the self-cleavage is reported as 0.12.
UGCAGAGCUCAACACAGCGUGACAAAGUGGCUGUGGCUAGACUGCG [G1U G22A C46G] showed a self-cleavage of 0.07.
For UGCAGAGCUCAACACAGCGUGACAAAGUGGCUGUAGCUAGACUGCC [G1U G22A G35A], the self-cleavage was 0.28.
In the case of UGCAGAGCUCAACACAGCGUGACAAAGUGGCUGUGGCUACACUGCU [G1U G22A G40C C46U], the self-cleavage is reported as 0.05.
UGCAGAGCUCAACACAGCGUGCCUAAGUGGCUGUGGAUAGACUGCC [G1U G22C A24U C37A] gave a self-cleavage of 0.01.
With UGCAGAGCUCAACACAGCGUGCCAAAGUGGCUGUGGCUACACUCCC [G1U G22C G40C G44C] the self-cleavage was 0.01.
With UGCAGAGCUCAACACAGCGUGUCAACGUUGCUGUGGCUCGACUGCC [G1U G22U A26C G29U A39C] the self-cleavage was 0.02.
For UGCAGAGCUCAACACAGCGUGUCAAUGUGGCUGUGGCUAGACUGCC [G1U G22U A26U], the self-cleavage was 0.43.
In the case of UGCAGAGCUCAACACAGCGUGUCAAAAUGGUUGUACCUAGACUGAC [G1U G22U G27A C31U G35A G36C C45A], the self-cleavage is reported as 0.02.
UGCAGAGCUCAACACAGCGUGUCAAAGUGUCUGUGGCUAGACUGCC [G1U G22U G30U] gave a self-cleavage of 0.96.
Variant UGCAGAGCUCAACACAGCGUGUCAAAGUGGCUCUGACUAGACUGCC [G1U G22U G33C G36A] has a self-cleavage of 0.01.
For UGCAGAGCUCAACACAGCGUGUCAAAGUGGCUUUGGCUAGACUGCC [G1U G22U G33U], the self-cleavage was 0.05.
UGCAGAGCUCAACACAGCGUGUCAAAGUGGCUGUGGCUAUACUGCC [G1U G22U G40U] gave a self-cleavage of 0.07.
Work on UGCAGAGCUCAACACAGCGUGGCAAAAUGGCUGUGGCUAGACUGAC [G1U G27A C45A] yielded a self-cleavage of 0.22.
UGCAGAGCUCAACACAGCGUGGCAAAAUGGCAGUGGCUAGACUGCC [G1U G27A U32A] showed a self-cleavage of 0.05.
UGCAGAGCUCAACACAGCGUGGCAAAAUGGCUGCGGCUAGACCGCC [G1U G27A U34C U43C] gave a self-cleavage of 0.01.
Variant UGCAGAGCUCAACACAGCGUGGCAAACUGGAUGUGGCUAGACUGCC [G1U G27C C31A] has a self-cleavage of 0.11.
Variant UGCAGAGCUCAACACAGCGUGGCAAAUUGGCUGUGGUUAGACUGCC [G1U G27U C37U] has a self-cleavage of 0.05.
In the case of UGCAGAGCUCAACACAGCGUGGCAAAUUGGCUCUGGCUAGACUGCC [G1U G27U G33C], the self-cleavage is reported as 0.03.
UGCAGAGCUCAACACAGCGUGGCAAAGUAGCUAUGGCUAGUCUGCC [G1U G29A G33A A41U] gave a self-cleavage of 0.03.
Variant UGCAGAGCUCAACACAGCGUGGCAAAGUAGCUUUUGCUAGACUGCC [G1U G29A G33U G35U] has a self-cleavage of 0.
Work on UGCAGAGCUCAACACAGCGUGGCAAAGUUGCUGUGGCUGGACUGCC [G1U G29U A39G] yielded a self-cleavage of 0.07.
Variant UGCAGAGCUCAACACAGCGUGGCAAAGUUCCUGUGGCUAGACUGCC [G1U G29U G30C] has a self-cleavage of 0.83.
UGCAGAGCUCAACACAGCGUGGCAAAGUUUCUGGGGCUAGACUCCC [G1U G29U G30U U34G G44C] gave a self-cleavage of 0.03.
UGCAGAGCUCAACACAGCGUGGCAAAGUUGCUGUGGCUACACUGCC [G1U G29U G40C] showed a self-cleavage of 0.02.
For UGCAGAGCUCAACACAGCGUGGCAAAGUGAAUGUGGCUAGACAGCC [G1U G30A C31A U43A], the self-cleavage was 0.03.
UGCAGAGCUCAACACAGCGUGGCAAAGUGACUGUGGCUAGACAGCC [G1U G30A U43A] showed a self-cleavage of 0.2.
In the case of UGCAGAGCUCAACACAGCGUGGCAAAGUGCAUCUGGCUAGACUGCC [G1U G30C C31A G33C], the self-cleavage is reported as 0.
In the case of UGCAGAGCUCAACACAGCGUGGCAAAGUGCCUGUGGCUAGACUGGC [G1U G30C C45G], the self-cleavage is reported as 0.03.
Work on UGCAGAGCUCAACACAGCGUGGCAAAGUGUCUGUGGCUAGACUGCA [G1U G30U C46A] yielded a self-cleavage of 0.83.
